Measured values reported in the BET-seq Pho4 binding data (Le et al. 2018).
This is one part of the list. These are noisy estimates, calculated here from bound and input reads.

biological target: T1, Pho4 (S. cerevisiae) (UniProt P07270); experiment: relative binding free energy (BET-seq); higher = weaker binding; conditions: reference: library average
T1 sequence: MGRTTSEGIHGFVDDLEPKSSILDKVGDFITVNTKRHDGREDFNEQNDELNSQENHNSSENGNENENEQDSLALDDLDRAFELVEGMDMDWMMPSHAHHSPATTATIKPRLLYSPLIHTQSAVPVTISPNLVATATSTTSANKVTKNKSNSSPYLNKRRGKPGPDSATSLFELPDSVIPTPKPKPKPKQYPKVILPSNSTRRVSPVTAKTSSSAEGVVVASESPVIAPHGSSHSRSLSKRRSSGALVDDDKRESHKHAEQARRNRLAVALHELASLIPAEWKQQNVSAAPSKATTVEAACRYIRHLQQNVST

Sequence | relative binding free energy [kcal/mol]
CGTGGCACGTGATTGT | -0.07
TGGGCCACGTGGTGAG | -0.15
ATTTTCACGTGTTTAT | 0.28
CTGGTCACGTGGGCAG | -0.03
ATATTCACGTGTGCAG | 0.08
CATAGCACGTGTGTGC | 0.05
TGAAACACGTGGTAGG | -0.05
CGGATCACGTGGGTTG | -0.1
AGTTGCACGTGTAGTG | 0.03
ATATTCACGTGAAGGT | 0.29
GCGCGCACGTGGGGTG | -0.36
GATTTCACGTGTATGA | 0.3
TGGTTCACGTGAACGG | 0.35
TTTCTCACGTGCGTTT | 0.21
GGTCCCACGTGGGCGT | -0.17
TTTTACACGTGCTGGC | 0.14
AGAGTCACGTGATTTT | 0.32
TACTTCACGTGGGAGT | 0.06
AGTTTCACGTGTCGTC | 0.22
CCAGGCACGTGGGAGG | -0.16
GGCGGCACGTGTGAGT | 0.03
TTAGGCACGTGGAGGA | 0.05
TTAGACACGTGTGTGT | -0.04
TTGCTCACGTGGGAAA | 0.2
GGTATCACGTGTTTGC | 0.25
GATTGCACGTGGTGAG | -0.03

Sequence | relative binding free energy [kcal/mol]
ATGTTCACGTGGCAAT | 0.34
TTTTCCACGTGTGTTC | 0.26
GGACGCACGTGGTTTA | -0.07
GTGTACACGTGAATGT | 0.34
TGGGGCACGTGAAAAT | 0.35
TATGCCACGTGGAGGG | -0.06
ATCAACACGTGGGTTA | -0.07
TGAGGCACGTGGGATC | -0.11
TGTCGCACGTGTTGTT | -0.1
TGATGCACGTGGTCGA | -0.08
TTCAGCACGTGGTGCG | -0.16
TATGACACGTGGTTGC | -0.03
CTTGTCACGTGGTAGC | 0.09
TAGGCCACGTGTGGAT | 0.01
AGGTGCACGTGCATTT | -0.03
GCGTGCACGTGTCGGG | -0.02
TGGTACACGTGTCAGG | 0
AGGGGCACGTGGTTAT | -0.25
ACGTACACGTGTAGTT | 0.07
ATCGTCACGTGTACGT | 0.1
TAGTTCACGTGCGGAT | 0.24
GTTGGCACGTGTTTGC | 0.06
ATATGCACGTGGTGGA | -0.1
AGGGTCACGTGCGGAT | 0.02
GGAAGCACGTGCCGGG | -0.1
GAGTACACGTGTAGAT | 0.35

Sequence | relative binding free energy [kcal/mol]
AGAATCACGTGGAGTT | 0.27
CTAGGCACGTGTTGGT | -0.02
CAGGACACGTGGGGTG | -0.11
TGCCTCACGTGTGGTG | 0.15
TAGTACACGTGTTGCT | -0.04
GGTGACACGTGGTAAA | -0.03
GAATTCACGTGAGTGG | 0.46
TAAGGCACGTGAGGAA | 0.17
GGTTTCACGTGATTAC | 0.39
CTGTTCACGTGATGTT | 0.22
TAGTTCACGTGTTCTT | 0.18
TAAGACACGTGTATGA | 0.09
TATTACACGTGAATGT | 0.25
AATGTCACGTGTCAAG | 0.16
TGTTACACGTGTCTTT | 0.08
AATTTCACGTGATAGT | 0.28
AGTGACACGTGGGTTC | -0.23
AGTCACACGTGGAGGT | 0.07
TGGGGCACGTGTATTT | -0.11
ATGATCACGTGGGAGA | 0.13
GTGGTCACGTGCGGAC | 0.11
GGGGGCACGTGAGATC | 0.07
GGATGCACGTGTCGGG | 0.04
TGGCTCACGTGGTGAA | 0.2
GGGGTCACGTGCGGCC | 0.13
TGGTCCACGTGGTATT | -0.09

Sequence | relative binding free energy [kcal/mol]
AGCGTCACGTGGAGTA | 0.11
CGGGCCACGTGGCGGG | -0.25
TAGTGCACGTGGTGGG | -0.06
CATTTCACGTGTGTCG | 0.31
CGGTGCACGTGGGGTT | -0.06
GTTGGCACGTGCAGTA | -0.2
AGGTCCACGTGAAGGG | 0.19
TGTTCCACGTGAAGTG | 0.29
GCATGCACGTGATGTG | 0.18
GGGAGCACGTGCTGGT | -0.1
TAATTCACGTGCAGGG | 0.23
TCTATCACGTGGGTGA | -0.01
ATTTACACGTGAGAAT | 0.26
GGGTACACGTGACAGG | 0.23
TTATGCACGTGCGTTA | -0.06
TATAGCACGTGGTGGT | -0.12
TGGCTCACGTGAAGTG | 0.37
GATGTCACGTGGAAGG | 0.32
GGGAGCACGTGAGAGG | 0.2
CAGGGCACGTGGGTCA | -0.17
ATGGACACGTGGTTGT | -0.02
ATTTTCACGTGAATAA | 0.27
GAGCACACGTGGGGGC | 0.09
TGTTGCACGTGTAATA | 0.04
GGGATCACGTGGACAG | 0.33
TCTTACACGTGAATTT | 0.44

Sequence | relative binding free energy [kcal/mol]
TTGTGCACGTGGTCAA | -0.23
CTGATCACGTGTGAGG | 0.16
AGTCTCACGTGGGTAG | 0.02
GGAAACACGTGGGGGG | -0.05
ATGATCACGTGTGTAG | 0.18
GTTTACACGTGTTGTA | 0.19
TGCGGCACGTGTAAGG | 0.02
GTCTGCACGTGAAGGA | 0.35
TATGACACGTGTGTCT | -0.02
TGATGCACGTGGACTG | 0.05
TGTTGCACGTGTTTAG | -0.08
ACGTACACGTGTGGGT | 0.1
AGAGGCACGTGAAGGC | 0.12
GTTCGCACGTGGAGGT | -0.03
GAGTGCACGTGGCGTG | -0.06
TATTGCACGTGACGGA | 0.05
TGTGTCACGTGAATGT | 0.21
TTGCGCACGTGCTGTA | -0.14
CAGTTCACGTGGTGTA | 0.17
GGCGACACGTGTTGGA | 0.32
CTGGGCACGTGTACGT | 0.07
TGTCTCACGTGGCGTG | -0.07
GTTGGCACGTGAGTTT | 0.15
GTTACCACGTGGTTTG | 0
GTGATCACGTGATCGT | 0.27
TGTAGCACGTGATTAA | -0.03

Sequence | relative binding free energy [kcal/mol]
TTGCTCACGTGTCTGG | 0.3
ATAGTCACGTGGAGTC | 0.22
TCAGGCACGTGGGGTA | -0.27
TGGTTCACGTGATCAT | 0.22
GGTCGCACGTGTAGGA | 0.04
TTGTCCACGTGGGAGT | -0.18
TAATCCACGTGTTATG | 0.2
TATAGCACGTGCGTGG | -0.07
CGCGTCACGTGGGTGT | -0.1
TATTCCACGTGGGGGG | -0.05
GTTTTCACGTGCATGT | 0.24
GTATTCACGTGGGGAG | 0.17
TTGGGCACGTGTAAGG | 0.09
GAGTACACGTGGCGGT | 0.12
AAGTGCACGTGTGTTA | -0.07
GCAGGCACGTGGGTCG | -0.29
TTATTCACGTGTTCAA | 0.12
TATGTCACGTGAGGGT | 0.31
CTGTTCACGTGGGAGA | 0.14
TTTAACACGTGCGTAT | -0.09
ATTGCCACGTGGGGCT | -0.2
AACGTCACGTGTTGGT | 0
TAGGTCACGTGGGGAC | 0.06
GATTTCACGTGCTAGG | 0.21
CGGGACACGTGAGGAT | 0.25
TTCAGCACGTGGCGTT | -0.21

Sequence | relative binding free energy [kcal/mol]
TCGGTCACGTGGGGTA | -0.09
TTATTCACGTGGTCAT | 0.28
TGCTTCACGTGAGGGC | 0.44
GGGGGCACGTGAATGG | 0.19
TTGCTCACGTGTAGAG | 0.34
TAAGCCACGTGTTGGT | -0.09
GGGGGCACGTGTAGGA | -0.05
TTCGTCACGTGTTTAT | 0.09
AGGGTCACGTGTGGAG | 0.13
TTAGACACGTGTTAAA | 0.18
ATTTGCACGTGTGATT | 0.16
TTTAACACGTGATGAT | 0.19
AGGGTCACGTGTGAAA | 0.25
TTCGGCACGTGCGGTG | -0.19
TTGCTCACGTGGGAAT | 0.16
AGCTTCACGTGGTGCG | 0.18
TTAATCACGTGTAAGT | 0.21
AAGTGCACGTGGTATT | -0.13
GGTGTCACGTGTAAGC | 0.23
GAAGGCACGTGGTGGC | -0.24
CGGCGCACGTGTTGTT | -0.12
TTTTACACGTGCATTA | 0.03
CGGTACACGTGAAAGT | 0.44
AAGTTCACGTGTTTTG | 0.25
CTATTCACGTGAGTGG | 0.33
ATATGCACGTGGGGGC | -0.18

Sequence | relative binding free energy [kcal/mol]
GTCATCACGTGTTGTG | 0.1
AAGTGCACGTGTGGCA | -0.04
GGTCTCACGTGGTGAT | 0.24
GACGTCACGTGGGATG | 0.1
GATGGCACGTGTATGT | 0
TGGGGCACGTGCGAGG | -0.2
ATAATCACGTGGAATG | 0.08
GGAGTCACGTGAGAGC | 0.29
GGAATCACGTGCAGGG | 0.07
GCACGCACGTGGGGGG | -0.28
TGTTGCACGTGATTAT | 0.1
GGTATCACGTGTTTTT | 0.17
AGGGACACGTGTCTTG | 0.12
TGTGGCACGTGCTAGG | -0.03
ATGTGCACGTGTTCAA | -0.1
TTATGCACGTGATTCG | -0.07
ACGGCCACGTGGTGTT | -0.16
TTAGACACGTGGGACT | 0
TAGGTCACGTGATTCA | 0.25
AACGGCACGTGCGGGG | -0.25
ATGTACACGTGAGGGG | 0.29
TGTCTCACGTGTTATG | 0.2
GTTGGCACGTGCAATG | -0.07
TGGGGCACGTGGCACT | -0.13
GGTGGCACGTGTGGAC | 0.05
GATGTCACGTGACGGG | 0.29

Sequence | relative binding free energy [kcal/mol]
AGTAGCACGTGTTGTG | -0.02
TTTACCACGTGTGATT | -0.06
CGGGTCACGTGTCGGG | 0.12
GTCTGCACGTGGTTCT | -0.02
GAAGACACGTGGTTGT | 0.04
TGTACCACGTGAGGGG | 0.08
GTTGGCACGTGGGTCG | -0.2
TACAGCACGTGAGGGT | 0.1
TGGTTCACGTGAACGT | 0.23
TGAGGCACGTGCGGGA | -0.18
TTAAGCACGTGGCCGG | -0.09
GGTCTCACGTGTACGG | 0.17
TGAAGCACGTGAGATG | 0.23
CTTTGCACGTGTAGTT | 0.04
TGAGGCACGTGTAGTA | -0.01
CGGTTCACGTGTTGCA | 0.22
TGGTCCACGTGTGCGG | -0.01
GGATGCACGTGGAGTC | 0.09
TATGTCACGTGTGGCA | -0.07
TGAGGCACGTGAACGT | -0.04
TGGTACACGTGGCCGG | -0.14
AAGTACACGTGATGTG | 0.34
